Screen size: about 48,000 compounds; about 1,200 (2.5%) were called active. Not shown: some 2% with an inconclusive outcome.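 The calls were made as follows: active = activation of at least 60% and not above a set upper limit (about 1 call in 100 departs from these limits); inconclusive = activation of 40% to 60%, or above that upper limit; inactive = activation under 40%.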 The list shows a part of the results.
target: Probable G-protein coupled receptor 32 (Homo sapiens) (UniProt O75388); experiment: qHTS for Agonists of Human Resolvin D1 Receptor DRV1; settings: CHO-K1 GPR32 beta-arrestin PathHunter luminescence, 90 min; at 76.9 µM; stronger effect = higher value; zero percent set by DMSO-only wells; also: 0% is about no effect
Chain of UniProt O75388 (O75388 whole entry, looked up): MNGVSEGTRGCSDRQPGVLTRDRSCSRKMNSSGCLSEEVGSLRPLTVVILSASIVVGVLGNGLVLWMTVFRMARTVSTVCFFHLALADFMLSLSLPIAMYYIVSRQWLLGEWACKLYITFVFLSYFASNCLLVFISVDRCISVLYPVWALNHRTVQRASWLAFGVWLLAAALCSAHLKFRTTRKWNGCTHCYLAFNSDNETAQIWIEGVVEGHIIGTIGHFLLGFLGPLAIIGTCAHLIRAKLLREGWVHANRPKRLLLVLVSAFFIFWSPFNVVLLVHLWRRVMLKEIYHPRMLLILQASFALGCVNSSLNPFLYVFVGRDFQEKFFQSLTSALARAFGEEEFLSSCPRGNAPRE
Method in brief: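 Cells are plated overnight, treated with compounds in DMSO for 90 minutes at 37 °C, and developed with PathHunter detection reagent for 1 hour before luminescence is read; signal reflects beta-arrestin binding to GPR32 in engineered CHO-K1 cells.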

activation, inactive:
O=C(Nc1ccc2nc(SCC(=O)N3CCCc4ccccc43)sc2c1)c1ccccc1 -20.2%, Cc1ccc(C(=O)O[C@H](C(=O)O)[C@@H](OC(=O)c2ccc(C)cc2)C(=O)O)cc1 (tested in a mixture with another compound) -7.75%, COc1ccc(S(=O)(=O)Nc2ccc3c(c2)CCCN3S(=O)(=O)c2ccc(C)cc2)cc1F -24%, COc1cccc(CNC(=O)c2cc(C)nc3c2c(C)nn3-c2cccc(F)c2)c1 -17.7%, COc1ccccc1N1CCN(CCCCNS(=O)(=O)c2cccc3c(N(C)C)cccc23)CC1 8.23%, Cc1cc(CC(=O)O)n(C)c1C(=O)c1ccc(Cl)cc1 -9.19%, Nc1c(C(=O)Nc2ccc(F)c(F)c2)sc2nc(-c3ccncc3)ccc12 -7.05%, NCCNC(=O)c1ncsc1-c1cccc(F)c1 -11.5%, COC(=O)c1cc(NC(=O)c2nn(C)c3c2COc2ccccc2-3)cc(C(=O)OC)c1 -9.39%, O=C(COCc1cc(-c2ccc3c(c2)OCO3)on1)N1CCN(c2ccccc2)CC1 -7.46%, COc1ccccc1NC(=O)C1=C(C)Nc2nc(SCc3ccccc3F)nn2C1c1cccs1 (centres undefined) 33.7%, COc1ccc(-n2nnnc2C2CCN(S(=O)(=O)c3ccc(C(C)(C)C)cc3)CC2)cc1 -22.8%, CCC(CC)C(=O)Nc1nc2c(s1)CC(C)CC2 (centres undefined) 14.5%, Cc1ccc(S(=O)(=O)NCCc2cn3ccsc3n2)cc1 -0.744%, CN(C(=O)c1cc2c(s1)-c1ccc(Cl)cc1SC2)c1cccc(C(F)(F)F)c1 22.6%, O=C(CN1C(=O)COc2ccc(S(=O)(=O)N3CCCCC3)cc21)NCc1ccc(Cl)cc1 -16.7%, COc1ccc(CCNC(=O)c2cnc3sc(N4CCCC4)nn3c2=O)cc1OC -5.19%, CSCCC(NS(=O)(=O)c1ccc2c(c1)oc(=O)n2C)C(=O)N1CCN(c2cccc(Cl)c2)CC1 (centres undefined) -24.5%, Cc1ccc(CNC(=O)c2nnn(CC(=O)Nc3cc(C)ccc3C)c2N)cc1 -1.16%, Cc1ccc(CN(Cc2ccco2)C(=O)COc2ccc(Cl)cc2)o1 -4.69%, CCOC(=O)c1cc(-c2ccc(F)cc2)n(CCC(=O)NCCc2ccc(C)cc2)c1C -27.4%, COc1cc(NC(=O)c2cc3ccccn3n2)cc(OC)c1OC 1.75%, CCOc1ccc(-c2cc(-c3nc(-c4cc(OC)c(OC)c(OC)c4)no3)[nH]n2)cc1 -4.81%, CCc1ccccc1NS(=O)(=O)c1ccc(NC(=O)N2CCCC2)cc1 3.22%, CC(=O)c1ccc(NC(=O)c2ccc(-c3nc(CSc4ccccc4)c(C)o3)cc2)cc1 -8.6%, COc1cc(NC(=O)c2cc(C)nc3c2c(C)nn3-c2ccccc2Cl)cc(OC)c1 -5%, Cc1ccc2cc3c(N)nn(C(=O)c4cccc(F)c4)c3nc2c1 -8.56%, CO[C@@]1(NC(=O)CSC[C@@H](N)C(=O)O)C(=O)N2C(C(=O)O)=C(CSc3nnnn3C)CS[C@@H]21 12.9%, COc1cc(CCC(=O)NCc2ccc3c(c2)CCN3C(=O)c2ccc(F)cc2)cc(OC)c1OC -12.3%, CCOC(=O)c1c(SCC(=O)Nc2cc(Cl)cc(Cl)c2)nc(=O)[nH]c1C -5.41%, COc1ccc2ncc3c(-c4ccc(C)c(C)c4)nn(CC(=O)NC4CCCC4)c3c2c1 -14.4%, COc1ccc(-c2nc3c(c(SCC(=O)N(C)c4ccccc4)n2)Cc2cc(C)ccc2O3)cc1 -8.27%, CCCCNC(=O)C1CCC(CNS(=O)(=O)c2ccc(NC(C)=O)cc2)CC1 (centres undefined) -2.59%, CCN(CC)c1ccc(NC(=O)Cn2nc(C)n3cccc3c2=O)c(C)c1 -17.5%, Cc1cccc(-n2ncc3c(N4CCN(c5ccccc5)CC4)ncnc32)c1 8.36%, Cc1ccc2nc(NCc3ccc(F)cc3)c3nncn3c2c1 -18.4%, CCc1ccccc1NC(=O)CCc1c(C)nn(-c2ccc(N3CCOCC3)nn2)c1C 0.748%, CCc1nn2c(=O)cc(COC(=O)c3ccccc3NC(=O)C3CCCCC3)nc2s1 -14.9%, CC(=O)Nc1ncc([N+](=O)[O-])s1 -60.8%, CCc1ccc(CNCc2c(C(=O)O)n(Cc3ccc(F)cc3Cl)c3cc(OC)ccc23)cc1 8.47%, COc1cc2ccccc2cc1C(=O)N1CCN(c2nc3ccc(F)cc3s2)CC1 -4.95%, O=C(c1ccc(F)cc1)n1nc(-c2ccccc2)nc1NCc1ccc(F)cc1 -8.81%, COc1ccc(NC(=O)CCc2nnc3n(CC(C)C)c(=O)c4ccccc4n23)cc1 1.6%, COc1ccccc1CCNS(=O)(=O)c1ccc(N2CCCCS2(=O)=O)cc1 8.74%, CC12CCC(CC1)C(C)(C)O2 -1%, COc1ccc(CNC(=O)c2ccc(CS(=O)Cc3ccccc3Cl)o2)cc1 (centres undefined) -6.3%, Cc1ccc(C2c3[nH]c4ccccc4c3CCN2C(=O)CCC2CCCC2)cc1 (centres undefined) -36.8%, Cc1nc2ccn(Cc3ccco3)c(=O)c2cc1C(=O)N1CCN(c2ccccc2)CC1 -13.8%, CCc1ccccc1NC(=O)C1CCCN(c2ncnc3onc(C)c23)C1 (centres undefined) 18.2%, Cc1ccc(NC(=O)Cn2ccn(-c3ccc(F)c(F)c3)c(=O)c2=O)cc1C -2.41%, O=C(c1ccc(CSc2nc3ccncc3n2Cc2ccccc2)cc1)N1CCCCCC1 21.7%, Cc1ccc(Cl)cc1-n1ncc2c(Nc3cccc(C)c3C)ncnc21 23.1%, Cc1ccc(-n2nc(C(=O)N3CCN(c4cc(Cl)ccc4C)CC3)c3c4ccccc4n(C)c3c2=O)cc1 8.75%, C=Cc1ccc(CSc2nc(-c3ccc(C)cc3)nc3c2Cc2c(CO)cnc(C)c2O3)cc1 40.3%, CC(C)c1ccc(OCC(=O)N(Cc2ccc(N(C)C)cc2)C2CCS(=O)(=O)C2)cc1 (centres undefined) -29.2%, Cc1cccc(NC(=O)C(NS(=O)(=O)c2ccc3c(c2)oc(=O)n3C)C(C)C)c1 (centres undefined) -7.35%, O=c1c(S(=O)(=O)c2cccc(Cl)c2)cn(Cc2ccccc2)c2cc(N3CCOCC3)c(F)cc12 -4.35%, O=C(Nc1cccc(C(=O)OCc2cc(=O)n3c4c(sc3n2)CCCC4)c1)c1ccccc1 -22.6%, Cc1ccc2nc(-c3cccnc3)c(Nc3ccccc3C)n2c1 -4.35%, CCCNC(=O)CCSc1nc(-c2ccc3c(c2)OCO3)cc(C(F)(F)F)n1 26.4%, Cc1cc(C)c2nc(N(Cc3cccnc3)C(=O)CCOc3ccccc3)sc2c1 6.25%, CCc1ccc(NC(=O)Cn2c(=O)n(Cc3ccco3)c(=O)c3cccnc32)cc1 14.6%, CCOc1ccc(S(=O)(=O)Nc2nc3ccccc3nc2Nc2ccc(OC)cc2)cc1 -1.05%, Cn1c(=O)n(CCCc2ccccc2)c(=O)c2c1nc1n2CCN1c1ccc(F)cc1 -11%, CCOC(=O)c1cc2c(=O)n3ccccc3nc2n(Cc2ccco2)c1=NC(=O)c1ccc(OCC)cc1 -41.3%, CCOCC(O)COc1ccc(NC(=O)CC[S+](C)C)cc1 (centres undefined) -4.28%, O=C(c1cc(-c2ccc(O)cc2)on1)N1CCN(c2ccccc2)CC1 27.9%, CCN(c1cccc(C)c1)c1ncnc2c1cnn2-c1cccc(Cl)c1 -0.397%, CCn1c(=O)cc(OCC(=O)N2CCN(c3ccc(F)cc3)CC2)c2ccccc21 29.1%, CCCCOC(=O)c1ccc(NC(=O)c2cnc3ccc(C)cn3c2=O)cc1 13.2%, COc1cc(OC)c(N(C)C(=O)c2sc3nc4n(c(=O)c3c2C)CCCC4)cc1Cl 6.38%, Cc1nn(C(=O)c2ccc(Br)cc2)c(C)c1Sc1ccccc1 5.29%, COc1ccc(CN2COc3ccc4c(-c5ccccc5)cc(=O)oc4c3C2)cc1OC -13.5%, CCN1/C(=C/C=C/c2sc3ccccc3[n+]2CC)Sc2ccccc21 -40.4%, Cc1ccc(NC(=O)Cn2c(=O)n(Cc3nc(-c4ccccc4)no3)c(=O)c3cc4c(cc32)OCO4)c(C)c1 -16%, O=C(NCc1ccccc1)c1cnc(N2CCCCC2)c2ccccc12 -13.3%, COc1ccc(Cl)cc1NC(=O)CSC1=Nc2ccccc2C2=NC(CC(=O)NCc3cccs3)C(=O)N12 (centres undefined) -3.16%, COc1ccc(CCNC(=O)CSc2n[nH]c(-c3ccccc3Cl)n2)cc1OC -9.72%, CCc1ccc(-n2c(=O)c3cccnc3n2CC(=O)NCc2ccc(C)cc2)cc1 -27.5%, Cc1ccc(NC(=O)C2=CC(c3ccc4c(c3)OCO4)=NS(=O)(=O)N2C)cc1 -1.81%, COc1cccc(Nc2nc3ccc(C)cc3nc2-n2nc(C)cc2C)c1 -4.52%, COc1ccc(Nc2c(-c3ccccn3)nc3ccc(Cl)cn23)cc1 -33.8%, COc1ccc(Cn2c(=O)[nH]c3cc(C(=O)N4CCN(c5cc(Cl)ccc5C)CC4)ccc3c2=O)cc1 -18.7%, COc1ccccc1-c1noc(-c2ccc(NC(C)C)c([N+](=O)[O-])c2)n1 -14.2%
